Laboratory results taken from PubChem BioAssay AID1963576 (National Center for Advancing Translational Sciences (NCATS), 2024).
Among all 46,000 compounds or so, about 60 (0.1%) were called active. Inconclusive results (about 3%) are left out. Calls come from the whole dose curve; as a rule, active = well fitted inhibition curve with a large enough effect; inconclusive = small, poorly fitted or top-dose-only effect; inactive = no such curve, though single readings can be large or run the other way. The list shows a part of the results.

assay: Primary qHTS assay for Inhibitors of ovarian cancer metastasis using an organotypic tumor microenvironment (TME) model.; note: nearly all actives have a fitted effect of over 65% in size;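 for activity change, negative = inhibition: plate controls were DMSO wells for no effect and tomatine positive control wells for full effect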; settings: SKOV3ip1-GFP adhesion/invasion on 3D omental model, fluorescence; series mostly up to 45.8 µM; activity change, negative = inhibition: at the top concentration
Summary of the method: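 qHTS, 4-pt dose (0.36-46 umol/L); SKOV3ip1-GFP, 1,200 cells/well, no FBS; primary omental fibroblast/mesothelial co-culture 48 h pre-grown; 2 h RT + 16 h 37 C; PBS wash, 4% PFA; GFP count 488/509 nm.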

Activity change, negative = inhibition, inactive:
CCc1cccc(C)c1NC(=O)Cn1ncc2c3ccccc3n(Cc3ccccc3)c2c1=O 1.71%
O=c1c(N2CCN(c3cccc(Cl)c3)CC2)csc2ccc(Cl)cc12 -1.04%
O=C1CCSc2ccc(S(=O)(=O)Nc3cccc(C(F)(F)F)c3)cc2N1 6.7%
O=c1c2sccc2n(Cc2cc(=O)n3cc(Cl)ccc3n2)c(=O)n1-c1ccccc1 -4.46%
CCOC(=O)c1[nH]c(C)c(CCC(=O)Nc2cc(Cl)c(OC)cc2OC)c1C -8.18%
Cc1cc(C)c(NC(=O)Cn2c(=O)n(CC(=O)NCCc3ccccc3)c(=O)c3ccccc32)c(C)c1 4.75%
O=C(NC1CCCCCC1)c1ccc(CS(=O)c2cccc(Cl)c2)o1 (centres undefined) -6.95%
O=C(CSc1nc2ccccc2n1Cc1cccc(F)c1)N1CCN(c2ccc(F)cc2)CC1 -25.6%
O=C(NCc1ccccc1Cl)c1ccc2c(c1)N(Cc1ccccc1)CCS2 -17.1%
Cc1ccc(CCNC(=O)c2ccc3c(c2)N(Cc2ccc(F)cc2)CCS3)cc1 5.68%
Cc1nc(-c2ccc(C)c(S(=O)(=O)N3CCC(C(=O)NCc4ccc(F)cc4)CC3)c2)no1 24.8%
CC(=O)c1cccc(N2C(=O)CN(S(C)(=O)=O)CC2(C)C(=O)NC2CCCC2)c1 (centres undefined) 9.53%
N[C@@H](Cc1ccc(O)c(O)c1)C(=O)O 0.186%
CCc1ccc(NC(=O)Cn2c(=O)n(CCc3ccccc3)c(=O)c3sc4ccccc4c32)cc1 8.31%
COc1ccc(S(=O)(=O)N(CCc2ccccc2)CC(=O)Nc2cc(C)cc(C)c2)cc1OC 0.163%
Cc1cccc(-n2nnc(-c3nc(-c4cccs4)no3)c2N)c1 0.177%
Cc1cc(N2CCC(C)CC2)nc2ccc(NC(=O)CCC(=O)N3CCN(c4ccccc4F)CC3)cc12 -3.46%
Cc1ccc(N(C)C(=O)C2CCN(S(=O)(=O)c3cn(C)cn3)CC2)cc1 -3.73%
CCn1c(=O)c2sccc2n2c(CCC(=O)Nc3ccc(C(C)C)cc3)nnc12 -6.01%
Cc1ccc(C)c(NS(=O)(=O)c2ccc3oc(=O)c4ncn(C)c4c3c2)c1 2.82%
CC1CCN(CCCNC(=O)CN2C(=O)CSc3ccc(S(=O)(=O)N4CCOCC4)cc32)CC1 4.2%
COc1cc(C2c3c(oc4ccccc4c3=O)C(=O)N2Cc2ccc(C)cc2)ccc1O (centres undefined) -3.88%
COc1ccc(OCC(=O)NC(Cc2c[nH]c3ccccc23)C(=O)O)cc1 (centres undefined) 14.9%
CN(C)CCc1c[nH]c2ccc(CS(=O)(=O)N3CCCC3)cc12 -16.9%
COc1ccc(NC(=O)c2cc3c(=O)n(Cc4cccnc4)ccc3nc2C)c(OC)c1 0.177%
Cc1cccc(CN2C(=O)c3ccccc3S(=O)(=O)c3ccc(C(=O)NC4CCCCC4)cc32)c1 3.89%
CC(NC(=O)CSc1nc(-c2ccccc2F)nc2cc(=O)[nH]n12)c1nc2ccccc2n1C (centres undefined) -5.07%
Cc1ccc(CNC(=O)Cn2ccn(-c3ccc(F)cc3)c(=O)c2=O)cc1 3.9%
O=C(Nc1ccc(N2CCOCC2)c(C(=O)O)c1)c1ccc(Br)cc1 -13.5%
Cc1ccc2nc3c(cc(C(=O)NCc4ccco4)c(=N)n3C(C)C)c(=O)n2c1 -7.81%
CC(=O)c1cccc(NC(=O)Cn2cc(C(=O)c3cccc(Cl)c3)c(=O)c3ccc(C)nc32)c1 -2.12%
CCC(=O)N1CCCc2cc(S(=O)(=O)N3CCC(C(=O)Nc4ccc(C#N)cc4)CC3)ccc21 2.06%
Cc1cccc2c(=O)cc(CSc3ccccc3NC(=O)C(C)(C)C)[nH]c12 -0.148%
CCCC(=O)Nc1ccccc1C(=O)OCc1cc(=O)n2nc(C(C)C)sc2n1 -5.98%
COc1ccc(OCc2ccc(-c3nc(C#N)c(NCc4cccnc4)o3)o2)cc1 -4.5%
CCOC(=O)c1cc(S(=O)(=O)NCc2ccc(OC)cc2)[nH]n1 5.05%
Cc1cc(C)cc(NC(=O)N2CCN(C(=O)c3nsc4ccccc34)CC2)c1 -5.99%
COc1ccc(OC)c(S(=O)(=O)N2CCN(Cc3nc4ccc(C)cc4o3)CC2)c1 2.3%
Cc1ccc(Cn2cc(S(=O)(=O)c3ccc(Cl)cc3)c(=O)c3cc4c(cc32)OCO4)cc1 1.66%
Cc1ccc(CNC(=O)CCc2nc3cccnc3n2Cc2ccccc2)cc1 5.59%
CC(=O)Nc1ccc(NC(=O)C(NS(=O)(=O)c2ccc(Br)s2)c2ccccc2)cc1 (centres undefined) 1.15%
COCc1oc2ccc(NS(=O)(=O)c3ccc(C)cc3)cc2c1C(=O)OC -7.03%
CCCc1ccc(OC(C)c2nc(-c3ccc(-n4cccc4)cc3)no2)cc1 (centres undefined) 0.637%
CN(c1ncccc1CNc1nc(Nc2ccc3c(c2)CC(=O)N3)ncc1C(F)(F)F)S(C)(=O)=O 24.2%
CC(=O)N1CCc2cc(S(=O)(=O)NC(Cc3ccccc3)C(=O)NCc3ccccc3Cl)ccc21 (centres undefined) 11.8%
COc1ccc(-c2cc3ccc(O)c(CN4CCCCC4C)c3oc2=O)cc1OC (centres undefined) -13.2%
CCOc1ccc2nc(N(Cc3cccnc3)C(C)=O)sc2c1 20.4%
O=C1CC(=O)Nc2cc(S(=O)(=O)Nc3ccc(F)cc3Cl)ccc2N1 32.5%
Cc1ccc(OCCSc2nc3ccc(NC(=O)c4ccco4)cc3s2)cc1 -0.0696%
COc1ccc(CCNC(=O)Cn2c(-c3ccc(F)cc3)cc(C(C)=O)c2C)cc1OC -5.08%
CCOC(=O)Cn1c(CN2CCN(c3ccc(OC)cc3)CC2)nc2c1c(=O)[nH]c(=O)n2C 4.4%
Cc1cc(=O)n(Cc2c(F)cccc2Cl)c2c1c(C)nn2C 0.978%
Cn1c(=O)n(C)c2cc(N3CCOCC3)c(NS(=O)(=O)c3ccc(Cl)cc3)cc21 8.17%
Cc1ccc(-n2c(=O)c3c(cnn3C)n(CC(=O)Nc3cccc(C)c3)c2=O)cc1 1.57%
COc1ccccc1N1CCN(C(=O)c2cc3c(-c4ccccc4F)nn(C)c3s2)CC1 -7.06%
CCOC(=O)C1CCN(C(=O)CSc2n[nH]c(-c3ccc(OC)cc3)n2)CC1 -9.05%
CCCC(=O)Nc1cc(-c2nnc3c4ccccc4c(C)nn23)ccc1C -4.65%
COc1ccc2c(c1)CC(C(=O)NCCc1ccc(S(N)(=O)=O)cc1)CO2 (centres undefined) 9.8%
Cc1cc(C)cc(NC(=O)c2cccc(C(=O)Nc3cc(C)cc(C)c3)c2)c1 1.86%
CSc1cccc(NC(=O)CN2C(=O)CCc3cc(S(=O)(=O)N4CCCCC4)ccc32)c1 -25.4%
COc1ccc(-n2c(=O)c3c(c4cc(OC)ccc4n3C)n(CC(=O)N3CCCC3)c2=O)cc1 18.5%
CCOc1ccc(CNC(=O)C2CCCN(c3nn4cc(-c5ccc(F)cc5)nc4s3)C2)cc1 (centres undefined) -0.579%
O=C(COc1ccccc1Cl)N(Cc1cccc(F)c1)C1CCS(=O)(=O)C1 (centres undefined) 22%
CCOc1ccc(/C=C/c2nc(C#N)c(NCCCN(C)C)o2)cc1 -7.36%
O=C(Cn1cnc2c(nc3n2CCCCC3)c1=O)Nc1cccc(C(F)(F)F)c1 5.98%
CCc1ccc2oc(-c3ccc(NC(=O)c4cccc(Cl)c4Cl)cc3)nc2c1 -6.88%
COC(=O)c1ccccc1NC(=O)Cn1c(=O)n(CCCC(=O)NCc2ccccc2Cl)c(=O)c2ccccc21 16.5%
CCOc1ccccc1NC(=O)CSc1ccc2nc(-c3ccccc3)cn2n1 -11.4%
COc1ccc(OC)c(NC(=O)Cn2c(=O)n(-c3ccc(Cl)cc3)c(=O)c3c(C)c(C)sc32)c1 -2.61%
COc1ccc(C(=O)N(c2ccc(C)cc2)S(=O)(=O)c2ccc(C)cc2)cc1 -4.59%
COc1ccc(Cl)cc1NC(=O)C1CCN(S(=O)(=O)c2ccc(F)cc2)CC1 -9.2%
O=C1CC(c2ccc(F)cc2F)c2cc3c(cc2N1)OCO3 (centres undefined) -0.353%
CCOc1cccc(C(=O)N(Cc2ccc(F)cc2)Cc2ccco2)c1 -4.05%
Cc1ccc(N2C(=O)CCSC23C(=O)N(Cc2ccc(F)cc2)c2ccccc23)cc1 (centres undefined) 15.3%
Cc1ccc(NC(=O)c2c(C)nn(-c3ccccc3)c2-n2cccc2)c(Cl)c1 -4.92%
CCOC(=O)c1c(NC(=O)COc2ccc(C(C)(C)C)cc2)sc2c1CCCC2 -28%
CCc1cccc(CC)c1NC(=O)Cn1nnc2sc3c(c2c1=O)CCCC3 2.18%
Cc1cccc(CC(=O)Nc2c(C(=O)Nc3cccc(F)c3)oc3ccccc23)c1 14.2%

outcome, inactive:
CCC(C)NC(=O)c1cn(CC)c2ccc(S(=O)(=O)N3CCc4ccccc4C3)cc2c1=O (centres undefined)
COc1ccccc1N1CCN(S(=O)(=O)CCNC(=O)C(c2ccccc2)c2ccccc2)CC1
Cc1ccc(C)c(CNC(=O)CN2C(=O)CSc3ccc(S(=O)(=O)N(C)C)cc32)c1
CCn1c(=O)c2cc(C(=O)NCCc3ccc(Cl)cc3)sc2c2ccccc21
CCc1nnc(SC(CC)C(=O)Nc2cc(C)ccc2C)c2cc3occc3n12 (centres undefined)
Cc1ccc(NC(=O)c2c(C)oc3ncn(CC(C)C)c(=O)c23)nc1
COC(=O)c1ccc(-n2c(/C=C/c3cc(OC)c(OC)c(OC)c3)nc3cc(Cl)ccc3c2=O)cc1
COc1cc(NC(=O)Cn2nnnc2-c2ccccc2F)cc(OC)c1OC
O=C(CCNS(=O)(=O)c1ccc2c(c1)CCN2C(=O)C1CC1)N1CCN(c2cccc(C(F)(F)F)c2)CC1
COc1cc2ccccc2cc1C(=O)N1CCN(c2nc3c(F)cc(F)cc3s2)CC1
Cc1ccc(C)c(OC(=O)CSc2nnc(-c3cccs3)o2)c1
Cc1ccc(NC(=O)C(C)Sc2nc3c(c(=O)[nH]2)CCCC3)cc1Cl (centres undefined)
CCc1ccc(NC(=O)CCCc2nnc3n(CCCOC)c(=O)c4sccc4n23)cc1
COCCn1c(SCC(=O)c2ccc(F)cc2)nc2cc(C(=O)NC3CCCC3)ccc2c1=O
Cc1ccc(N2C(=O)CS(=O)(=O)C23C(=O)N(Cc2ccc(Cl)cc2)c2ccccc23)cc1C (centres undefined)
Cc1ccc(Cc2nc3ccccc3nc2SCC(=O)NCc2ccccc2Cl)cc1
